Test results reported in PMC4060006, “SM proteins Sly1 and Vps33 co-assemble with Sec17 and SNARE complexes to oppose SNARE disassembly by Sec18” (eLife, 2014).
No constants are given. Whether binding was seen depends on the method and setting. Some entries that bind do so weakly or less than the wild type. For some assays here: Where a sequence is shown, tags or fusion partners need not be part of it. Blank lines part the entries; values can stand above or below the molecule they belong to.

The chains behind the UniProt entries cited, without tags or fusion partners. Where a name states a change or a piece, a line headed by the entry shows the natural chain unless it says otherwise. Residues count along the entry.
UniProt Q01590, residues 170-319: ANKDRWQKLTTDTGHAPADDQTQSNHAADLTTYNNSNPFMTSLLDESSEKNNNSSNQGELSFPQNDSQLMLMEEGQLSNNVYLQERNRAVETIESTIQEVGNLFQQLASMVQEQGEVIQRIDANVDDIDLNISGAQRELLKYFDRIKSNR
UniProt Q04338, residues 1-194: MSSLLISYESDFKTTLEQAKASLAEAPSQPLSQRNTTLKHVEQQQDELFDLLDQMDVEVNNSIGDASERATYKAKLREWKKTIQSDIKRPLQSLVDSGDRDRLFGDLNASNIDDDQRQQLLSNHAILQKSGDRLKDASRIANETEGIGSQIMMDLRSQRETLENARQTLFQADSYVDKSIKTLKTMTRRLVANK
UniProt P25385: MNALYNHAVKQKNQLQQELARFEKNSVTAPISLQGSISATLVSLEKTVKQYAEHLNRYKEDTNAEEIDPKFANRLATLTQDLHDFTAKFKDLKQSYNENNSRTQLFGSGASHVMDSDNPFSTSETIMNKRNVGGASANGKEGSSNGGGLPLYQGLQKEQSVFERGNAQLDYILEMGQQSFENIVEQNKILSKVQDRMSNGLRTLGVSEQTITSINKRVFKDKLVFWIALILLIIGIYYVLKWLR
UniProt P22214, residues 1-188: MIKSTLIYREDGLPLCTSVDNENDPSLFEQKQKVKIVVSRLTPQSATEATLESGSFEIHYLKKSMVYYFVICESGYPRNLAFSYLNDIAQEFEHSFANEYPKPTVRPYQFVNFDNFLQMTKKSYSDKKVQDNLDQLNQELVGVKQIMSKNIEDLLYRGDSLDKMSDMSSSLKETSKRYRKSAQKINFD
UniProt P20795: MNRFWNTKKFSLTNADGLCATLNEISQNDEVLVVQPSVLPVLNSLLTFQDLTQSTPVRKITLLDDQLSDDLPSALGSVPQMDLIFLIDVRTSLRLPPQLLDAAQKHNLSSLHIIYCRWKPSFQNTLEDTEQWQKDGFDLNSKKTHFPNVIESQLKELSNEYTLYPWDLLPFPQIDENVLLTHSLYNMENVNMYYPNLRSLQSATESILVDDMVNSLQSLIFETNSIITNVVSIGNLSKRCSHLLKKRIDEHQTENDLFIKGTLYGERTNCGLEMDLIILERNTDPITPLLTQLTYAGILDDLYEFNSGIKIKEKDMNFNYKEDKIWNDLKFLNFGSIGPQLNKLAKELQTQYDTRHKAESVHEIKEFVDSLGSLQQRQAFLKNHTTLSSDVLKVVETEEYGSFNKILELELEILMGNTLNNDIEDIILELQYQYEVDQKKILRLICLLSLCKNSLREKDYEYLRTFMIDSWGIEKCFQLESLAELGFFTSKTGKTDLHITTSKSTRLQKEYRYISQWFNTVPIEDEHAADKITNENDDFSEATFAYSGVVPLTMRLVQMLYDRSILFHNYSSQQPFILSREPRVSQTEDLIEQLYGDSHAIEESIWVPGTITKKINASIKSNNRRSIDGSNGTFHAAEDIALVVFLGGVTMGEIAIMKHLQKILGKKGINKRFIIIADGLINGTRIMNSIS

Experiments:
[1] = target: GST-Sed5 SNARE domain (aa170-319) (S. cerevisiae) (UniProt Q01590); assay: condition: only at the low concentrations of free SNAREs liberated by disassembly, 30 min; pull-down; re-assembly without added SNAREs: SNARE complexes (500 nM) disassembled 30 min at 30°C by Sec17, Sec18 and ATP, quenched with 10 mM EDTA, further 30 min at 30°C, with or without SM; both purified
[2] = target: T1, Sec17–vacuole SNARE complex (Sec17 bound to the vacuole SNARE complex on Vam3-GST) (S. cerevisiae) (UniProt Q12241+Q04338+P32912+Q12255+P32602); assay: pull-down; Sec17 pre-bound to immobilised SNARE complex 60 min at 30°C, unbound Sec17 washed out, then SM (Vps33 2.5 µM or Sly1 10 µM) for 60 min at 30°C; Coomassie; both purified
[3] = target: T1, Sec17–vacuole SNARE complex (Sec17 bound to the vacuole SNARE complex on Vam3-GST) (S. cerevisiae); assay: pull-down; across temperatures (4°, 24°, 30°C and a finer range), 60 min; immobilised SNARE complex or GST-Sed5FL (500 nM); Sly1 6-12 µM, Vps33 1-1.5 µM, Sec17 2-20 µM; Coomassie or SYPRO Ruby with standard curves; both purified
[4] = target: T1, Sec17–vacuole SNARE complex (Sec17 bound to the vacuole SNARE complex on Vam3-GST) (S. cerevisiae); assay: pull-down; SNARE complex (500 nM) immobilised through its GST-tagged Qa-SNARE; Sec17 (20 µM), SM (Vps33 2.5 µM or Sly1 10 µM) or both, 1 hr at 30°C in SM Assay Buffer (some with 1 mM ATP, 2 mM MgCl2); washed three times, glutathione elution, SDS-PAGE, Coomassie; both purified
[5] = target: T2, Vam3-GST (cytoplasmic domain of Vam3, aa1-264) (S. cerevisiae) (UniProt Q12241); assay: condition: only at the low concentrations of free SNAREs liberated by disassembly, 30 min; pull-down; re-assembly without added SNAREs: SNARE complexes (500 nM) disassembled 30 min at 30°C by Sec17, Sec18 and ATP, quenched with 10 mM EDTA, further 30 min at 30°C, with or without SM; both purified
T2 sequence: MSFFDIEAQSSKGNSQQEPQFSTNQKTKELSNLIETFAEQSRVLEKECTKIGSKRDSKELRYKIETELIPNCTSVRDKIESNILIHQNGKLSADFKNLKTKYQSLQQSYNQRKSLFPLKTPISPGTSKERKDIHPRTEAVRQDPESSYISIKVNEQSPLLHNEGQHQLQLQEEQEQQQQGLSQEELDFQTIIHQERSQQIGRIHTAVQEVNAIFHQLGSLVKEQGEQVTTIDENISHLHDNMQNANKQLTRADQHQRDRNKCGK

[6] = target: T3, Sec17–Golgi SNARE complex (Sec17 bound to the Golgi SNARE complex on GST-Sed5 SNARE domain) (S. cerevisiae) (UniProt Q01590+P25385+P22804+P22214+P32602); assay: pull-down; Sec17 pre-bound to immobilised SNARE complex 60 min at 30°C, unbound Sec17 washed out, then SM (Vps33 2.5 µM or Sly1 10 µM) for 60 min at 30°C; Coomassie; both purified
[7] = target: T3, Sec17–Golgi SNARE complex (Sec17 bound to the Golgi SNARE complex on GST-Sed5 SNARE domain) (S. cerevisiae); assay: pull-down; complexes formed 60 min at 30°C on immobilised Golgi SNARE complex (Sec17 20 µM, Sly1 10 µM), unbound washed out, resin kept a further 60 min in SM Assay Buffer at 4° or 30°C, washed again; Coomassie; both purified
[8] = target: T3, Sec17–Golgi SNARE complex (Sec17 bound to the Golgi SNARE complex on GST-Sed5 SNARE domain) (S. cerevisiae); assay: pull-down; across temperatures (4°, 24°, 30°C and a finer range), 60 min; immobilised SNARE complex or GST-Sed5FL (500 nM); Sly1 6-12 µM, Vps33 1-1.5 µM, Sec17 2-20 µM; Coomassie or SYPRO Ruby with standard curves; both purified
[9] = target: T3, Sec17–Golgi SNARE complex (Sec17 bound to the Golgi SNARE complex on GST-Sed5 SNARE domain) (S. cerevisiae); assay: pull-down; SNARE complex (500 nM) immobilised through its GST-tagged Qa-SNARE; Sec17 (20 µM), SM (Vps33 2.5 µM or Sly1 10 µM) or both, 1 hr at 30°C in SM Assay Buffer (some with 1 mM ATP, 2 mM MgCl2); washed three times, glutathione elution, SDS-PAGE, Coomassie; both purified
[10] = target: T4, Sly1 (full length, aa1-667) (S. cerevisiae) (UniProt P22213); assay: pull-down; full cytoplasmic domain of Sed5 (GST-Sed5FL, 500 nM) immobilised without assembled SNARE complex; Sly1 (10 µM) and Sec17; 30°C; Coomassie; both purified
T4 sequence: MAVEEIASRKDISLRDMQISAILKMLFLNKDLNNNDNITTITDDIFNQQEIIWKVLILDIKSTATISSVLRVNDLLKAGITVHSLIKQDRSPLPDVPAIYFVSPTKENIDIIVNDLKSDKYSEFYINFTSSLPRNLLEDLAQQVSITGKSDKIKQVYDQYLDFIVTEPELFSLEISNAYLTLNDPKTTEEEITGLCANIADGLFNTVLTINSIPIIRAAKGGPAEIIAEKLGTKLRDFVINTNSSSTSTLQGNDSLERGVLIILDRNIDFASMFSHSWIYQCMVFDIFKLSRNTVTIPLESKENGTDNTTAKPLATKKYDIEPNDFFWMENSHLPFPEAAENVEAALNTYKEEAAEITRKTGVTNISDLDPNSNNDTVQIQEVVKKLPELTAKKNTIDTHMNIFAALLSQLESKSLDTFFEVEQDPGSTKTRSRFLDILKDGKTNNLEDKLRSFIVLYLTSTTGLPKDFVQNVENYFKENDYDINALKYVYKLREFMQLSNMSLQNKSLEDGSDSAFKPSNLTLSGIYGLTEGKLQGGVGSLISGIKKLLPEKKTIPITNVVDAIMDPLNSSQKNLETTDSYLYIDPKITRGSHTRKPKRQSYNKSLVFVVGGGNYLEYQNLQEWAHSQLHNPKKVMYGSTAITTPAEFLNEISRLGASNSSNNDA

[11] = target: binary complex of Sly1 and GST-Sed5 full cytoplasmic domain (S. cerevisiae) (UniProt Q01590+P22213); assay: as above

binding [2]: binds
binding [3]: binds
binding [4]: binds
Molecule: Vps33 (from UniProt P20795 1-691)

binding [5]: no binding
B1: His6-Nyv1 (soluble domain, aa1-231) (domain or fragment, S. cerevisiae, UniProt Q12255 1-231, looked up)
chain: MKRFNVSYVEVIKNGETISSCFQPFQKNENYGTITSANEQITPVIFHNLIMDMVLPKVVPIKGNKVTKMSMNLIDGFDCFYSTDDHDPKTVYVCFTLVDMPKILPIRILSGLQEYESNATNELLSSHVGQILDSFHEELVEYRNQTLNSSGNGQSSNGNGQNTISDIGDATEDQIKDVIQIMNDNIDKFLERQERVSLLVDKTSQLNSSSNKFRRKAVNIKEIMWWQKVKN
notes: Nyv1, vacuole R-SNARE, S. cerevisiae, soluble domain aa1-231; also called vacuole R-SNARE; source: E. coli (pRIL plasmid), purified (Ni-NTA); not shown: His6, N-terminal, kept

binding [5]: no binding
B2: His6-GFP-Vam7 SNARE domain (aa190-316) (domain or fragment, S. cerevisiae, UniProt P32912 190-316, looked up)
chain: PSTEVTRRAALLRSLLKECDDIGTANIAQDRGRLLGVATSDNSSTTEVQGRTNNDLQQGQMQMVRDQEQELVALHRIIQAQRGLALEMNEELQTQNELLTALEDDVDNTGRRLQIANKKARHFNNSA
notes: Vam7, vacuole Qc-SNARE, S. cerevisiae, SNARE domain aa190-316; also called vacuole Qc-SNARE; source: E. coli (pRIL plasmid), purified (Ni-NTA); not shown: His6, N-terminal, kept; GFP (A207K), N-terminal, kept

binding [6]: binds
binding [7]: binds
binding [8]: binds
binding [9]: binds
B3: Sly1 (full length, aa1-667) (natural protein, S. cerevisiae, UniProt P22213 1-666, looked up)
chain: MAVEEIASRKDISLRDMQISAILKMLFLNKDLNNNDNITTITDDIFNQQEIIWKVLILDIKSTATISSVLRVNDLLKAGITVHSLIKQDRSPLPDVPAIYFVSPTKENIDIIVNDLKSDKYSEFYINFTSSLPRNLLEDLAQQVSITGKSDKIKQVYDQYLDFIVTEPELFSLEISNAYLTLNDPKTTEEEITGLCANIADGLFNTVLTINSIPIIRAAKGGPAEIIAEKLGTKLRDFVINTNSSSTSTLQGNDSLERGVLIILDRNIDFASMFSHSWIYQCMVFDIFKLSRNTVTIPLESKENGTDNTTAKPLATKKYDIEPNDFFWMENSHLPFPEAAENVEAALNTYKEEAAEITRKTGVTNISDLDPNSNNDTVQIQEVVKKLPELTAKKNTIDTHMNIFAALLSQLESKSLDTFFEVEQDPGSTKTRSRFLDILKDGKTNNLEDKLRSFIVLYLTSTTGLPKDFVQNVENYFKENDYDINALKYVYKLREFMQLSNMSLQNKSLEDGSDSAFKPSNLTLSGIYGLTEGKLQGGVGSLISGIKKLLPEKKTIPITNVVDAIMDPLNSSQKNLETTDSYLYIDPKITRGSHTRKPKRQSYNKSLVFVVGGGNYLEYQNLQEWAHSQLHNPKKVMYGSTAITTPAEFLNEISRLGASNSSNNDA
notes: Sly1, Golgi SM protein, S. cerevisiae, printed as full-length aa1-667; construct His6-(tev)-Sly1; as I recall the UniProt entry has 666 residues; the printed 667 may count the stop codon; also called His6-Sly1; Golgi SM protein; source: E. coli (pRIL plasmid), purified (Ni-NTA)

binding [1]: no binding
B5: His7-MBP-Bet1 (soluble domain, aa1-123) (domain or fragment, S. cerevisiae, UniProt P22804 1-123, looked up)
chain: MSSRFAGGNAYQRDTGRTQLFGPADGSNSLDDNVSSALGSTDKLDYSQSTLASLESQSEEQMGAMGQRIKALKSLSLKMGDEIRGSNQTIDQLGDTFHNTSVKLKRTFGNMMEMARRSGISIK
notes: Bet1, Golgi Qc-SNARE, S. cerevisiae, soluble domain aa1-123; also called Golgi Qc-SNARE; source: E. coli (pRIL plasmid), purified (Ni-NTA); not shown: His7, N-terminal, kept; MBP, N-terminal, kept

The next lines start with the molecule.

Molecule: His6-Sec22 (soluble domain, aa1-188) (from UniProt P22214 1-188) (domain or fragment)
binding [1]: no binding

Molecule: His7-MBP-Vti1 (soluble domain, aa1-194) (from UniProt Q04338 1-194) (domain or fragment)
binding [5]: no binding

B4: Sec17 (natural protein, S. cerevisiae, UniProt P32602 1-292, looked up)
chain: MSDPVELLKRAEKKGVPSSGFMKLFSGSDSYKFEEAADLCVQAATIYRLRKELNLAGDSFLKAADYQKKAGNEDEAGNTYVEAYKCFKSGGNSVNAVDSLENAIQIFTHRGQFRRGANFKFELGEILENDLHDYAKAIDCYELAGEWYAQDQSVALSNKCFIKCADLKALDGQYIEASDIYSKLIKSSMGNRLSQWSLKDYFLKKGLCQLAATDAVAAARTLQEGQSEDPNFADSRESNFLKSLIDAVNEGDSEQLSEHCKEFDNFMRLDKWKITILNKIKESIQQQEDDLL
notes: Sec17, S. cerevisiae; construct CBD-(intein)-Sec17 in pTYB12; an intein tag is as a rule cut off during purification; also called α-SNAP homolog; Sec18 adapter; source: E. coli (pRIL plasmid), purified
binding [10]: no binding
binding [11]: no binding
